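Protocol summary: plate cells (96-well), add compound at 5 concentrations, incubate 48 h, interpolate endpoints linearly. Abbreviation: GI50, concentration required for 50% inhibition of growth. TGI: total growth inhibition.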
system: NCI-H322M lung; test: NCI-60 cell line screen, 48 h

Compound	TGI	GI50
COc1c2c(nc3ccccc13)-c1cc3c(c(=O)n1C2)COC(=O)C3(O)CC(=O)N1CCOCC1 (centres undefined)	84.6 µM	–
COc1ccc(C(SC2C(O)C(CO)OC2n2ccc(N)nc2=O)(c2ccccc2)c2ccc(OC)cc2)cc1 (centres undefined)	58.5 µM	–
CCOC(=O)C(NC(=O)CC)(Nc1cc(C)on1)C(F)(F)F (centres undefined)	> 100 µM	–
C/C=C(/COC(C)=O)C(=O)OC1C=C(C=O)C(C)(C)C=C1C (centres undefined)	> 100 µM	–
COc1cc2cc[n+]3c(C)c4cc(OC)c(OC)cc4c([O-])c3c2cc1OC	> 100 µM	–
O=C(c1cc(Cl)ccc1Cl)N1CCN(C(=O)c2cc(Cl)ccc2Cl)CC1	> 100 µM	–
CCCOC(=O)N1CCN(/[N+]([O-])=N/Oc2ccc([N+](=O)[O-])cc2[N+](=O)[O-])CC1	16.3 µM	3.87 µM
CCCC(=O)NC(Nc1ccc(S(=O)(=O)Nc2nc(C)cc(C)n2)cc1)(C(F)(F)F)C(F)(F)F	> 100 µM	–
O=c1nc2oc3ccc4ccccc4c3cc-2s1	> 100 µM	14.7 µM
O=C(Nc1ccc(Cl)c(Cl)c1)O/N=C\c1c(Cl)ccc([N+](=O)[O-])c1Cl	4.35 µM	2.01 µM
COc1ccc(C(=O)/C=C/c2c(Cl)c3c(c(OC)c2Cl)OCC(=O)N3)cc1	> 100 µM	3.94 µM
N#CC(c1nc2ccccc2nc1Cl)S(=O)(=O)c1ccccc1 (centres undefined)	> 100 µM	–
C[CH2][Sn]([CH2]C)([O]C(=O)C(OC(C)=O)c1ccccc1)[O]C(=O)C(OC(C)=O)c1ccccc1 (centres undefined)	> 100 µM	92.1 µM
COC(=O)C(CSSC[C@H](N/C(C)=C/C(C)=O)C(=O)OC)N/C(C)=C/C(C)=O (some centres undefined)	> 100 µM	–
CCN(C(=S)N[C@H](C(=O)N[C@@H](C)C(=O)OC)C(C)C)c1ccccc1	> 100 µM	–
CCOC(=O)NC(=O)c1cn(CCN2CCN(c3ncnc4nc[nH]c34)CC2)c(=O)[nH]c1=O	> 100 µM	–
COc1ccc(OC)c(-c2c(C#N)c(N)nc(N3CCOCC3)c2C#N)c1	> 100 µM	40.3 µM
C/C(Nc1ccc(F)cc1)=C1/CCOC1=O	> 100 µM	–
O=c1cc(N2CCN(c3cc(=O)n4ccccc4n3)CC2)oc2ccccc12	> 100 µM	–
Cc1[nH]c2ccccc2c1C1Cc2ccccc2N1C(=O)/C=C/C(=O)O (centres undefined)	> 100 µM	–
O=S1(=O)OCCOS(=O)(=O)C1Cc1ccccc1	> 100 µM	–
O=C1/C(=N\S(=O)(=O)c2ccccc2)C([n+]2ccc(Cc3ccccc3)cc2)=C([O-])c2ccccc21	3.08 µM	–
O=C(Nc1ccc(Cl)cc1)Nc1ccc(Nc2nncc3ccccc23)cc1	50.4 µM	5 µM
COc1ccc(C(=O)Cc2ccc(Br)cc2)cc1OC	> 100 µM	–

Compound	TGI	GI50
CCN(CC)Cc1ccc(Nc2nccc(-c3cnn4ncccc34)n2)cc1	> 6.19 µM	0.0381 µM
C(CCCCc1nnc(N2CCCCC2)o1)CCCc1nnc(N2CCCCC2)o1	> 100 µM	–
COC(=O)c1cc(Cl)ccc1NC(=O)c1ccc([N+](=O)[O-])cc1	72.9 µM	–
Oc1c([Si](c2ccccc2)(c2ccccc2)c2ccccc2)cc2ccccc2c1-c1c(O)c([Si](c2ccccc2)(c2ccccc2)c2ccccc2)cc2ccccc12	> 100 µM	–
CC[N+]1(C)CCC(O)(c2ccc(Cl)c(Cl)c2)C(C(=O)c2ccc(Cl)c(Cl)c2)C1 (centres undefined)	> 10 µM	–
Cc1ccc2c(c1C)C(=O)/C(=C/c1ccccc1C(=O)O)C2	> 100 µM	–
COc1ccccc1NC(=O)CC(=O)N1N=C(C)C(N=Nc2ccc(C(=O)O)cc2)C1=O (centres undefined)	> 100 µM	–
COc1cc(C(C)c2cc3c(cc2OCCO)OCO3)cc(OC)c1OC (centres undefined)	> 100 µM	–
CN1CC[C@@H](c2c(O)cc(O)c3c(=O)cc(-c4ccccc4Cl)oc23)[C@@H]1CO	> 10 µM	0.327 µM
CCOC(=O)C(=Cc1cccnc1C)C(=O)OCC	21.8 µM	–
CN(C(=O)c1ccco1)C(=S)N1CCN(c2ccccc2)CC1	> 100 µM	–
CSc1n[nH]c(N)c1C(=O)Nc1ccc(C)cc1	> 100 µM	–
Cc1cc(Cl)ccc1NC(=O)CC/C(CC(=O)C(C)C)=N\NC(=O)C[n+]1ccccc1	> 100 µM	–
COc1cc2c(cc1OC)C(Cl)C(c1ccc(Cl)c(Cl)c1)=C2Cl (centres undefined)	86.5 µM	–
CN1CCN(CCCBr)CC1	> 100 µM	–
COc1ccc2ccccc2c1C1OC(=O)c2ccccc21 (centres undefined)	> 100 µM	–
N#Cc1c(-c2ccc(Cl)cc2)c2c(n(C3OC(CO)C(O)C(O)C3O)c1=S)CCC2 (centres undefined)	> 100 µM	–
O=CC1CCCc2ccccc21 (centres undefined)	> 100 µM	–
O=C(/C=C/c1ccc([N+](=O)[O-])cc1)c1ccc2c3c(cccc13)CC2	> 100 µM	13.7 µM
CCOC(=O)NC(=O)c1cn(CCCCCCOC(=O)NCCCCCCNC(=O)OCCCCCCn2cc(C(=O)NC(=O)OCC)c(=O)[nH]c2=O)c(=O)[nH]c1=O	> 100 µM	–
COc1ccc2nc3cc([N+](=O)[O-])ccc3c(Nc3ccc(S(=O)(=O)NC(C)=O)cc3)c2c1	> 100 µM	–
CCOc1cc(C2CC(c3ccc(NS(=O)(=O)c4cc([N+](=O)[O-])ccc4C)cc3)=NN2c2ccc([N+](=O)[O-])cc2[N+](=O)[O-])ccc1O (centres undefined)	26.8 µM	–
COc1cc(C2c3cc4c(cc3OC(NNC(N)=O)C2C)OCO4)cc(OC)c1O (centres undefined)	> 100 µM	–
C/C=C(\C)C(=O)O[C@H]1C=CC(=O)O[C@@H]1CC[C@H](O)[C@H](C)O	> 100 µM	80.4 µM
